Some of the results follow. Cut-off read from the data, not from the text of the source: active = 3.2 or more and inactive = the rest. The signal is at background level for most entries.
These binders were tested against SHP2 C-SH2 domain E139D (assay: enrichment score (SH2-bound / input frequency) (ratio); bacterial display of known human phosphotyrosine sites (pTyr-Var adds point mutants) read by sequencing; higher = stronger binding; tyrosines were phosphorylated by kinases first). Conditions: peptide library: pTyr-Var.
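Note: displayed peptides selected on beads carrying the immobilized SH2 domain, with library peptides lacking any tyrosine serving as negative controls.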

Enrichment score, inactive:
VGIMLYGVDSR [PKD1_Y3143] 1.01
VVIMLYGVDSR [PKD1_Y3143_G3139V] 1.67
KGSLPYNLILD [PKD1L2_Y406] 0.965
KGSLPYSLILD [PKD1L2_Y406_N407S] 1.36
QDLFLYQTHSE [PKHD1_Y255] 1.05
QDLLLYQTHSE [PKHD1_Y255_F253L] 1.07
LGGAMYYLEAE [PKHD1_Y452] 1.19
LGGAMYYLEAD [PKHD1_Y452_E457D] 1.32
LGGAMYFLEAE [PKHD1_Y452_YF] 1.74
DFTSRYLNASD [PKHD1_Y828] 0.845
DFTSRYLSASD [PKHD1_Y828_N830S] 0.747
VGGRIYTDDGL [PKLR_Y218_I219T] 0.81
RPGSGYTNIMR [PKLR_Y564] 0.627
GPGSGYTNIMR [PKLR_Y564_R559G] 1.15
RRFSSYSQMEN [PKP1_Y120] 0.23
RHFSSYSQMEN [PKP1_Y120_R116H] 1.03
SEPDLYCDPRG [PKP1_Y160] 0.748
YTHSDYQYSQR [PKP2_Y166] 0.627

What follows are binders tested against SHP2 C-SH2 domain wild-type in the same assay as above. Conditions: peptide library: pTyr-Var.

Enrichment score, inactive:
VGIMLYGVDSR [PKD1_Y3143] 1.2
VVIMLYGVDSR [PKD1_Y3143_G3139V] 2
KGSLPYNLILD [PKD1L2_Y406] 1.05
KGSLPYSLILD [PKD1L2_Y406_N407S] 2.7
QDLFLYQTHSE [PKHD1_Y255] 0.931
QDLLLYQTHSE [PKHD1_Y255_F253L] 1.11
LGGAMYYLEAE [PKHD1_Y452] 1.07
LGGAMYYLEAD [PKHD1_Y452_E457D] 1.27
LGGAMYFLEAE [PKHD1_Y452_YF] 1.33
DFTSRYLNASD [PKHD1_Y828] 0.827
DFTSRYLSASD [PKHD1_Y828_N830S] 0.674
VGGRIYTDDGL [PKLR_Y218_I219T] 0.819
RPGSGYTNIMR [PKLR_Y564] 0.596
GPGSGYTNIMR [PKLR_Y564_R559G] 1.97
RRFSSYSQMEN [PKP1_Y120] 0.242
RHFSSYSQMEN [PKP1_Y120_R116H] 0.93
SEPDLYCDPRG [PKP1_Y160] 0.587
YTHSDYQYSQR [PKP2_Y166] 0.484

Each binder was assayed against SHP2 N-SH2 domain L43F in the same assay as above. Conditions: peptide library: pTyr-Var.

Enrichment score, inactive:
VGIMLYGVDSR [PKD1_Y3143] 1.25
VVIMLYGVDSR [PKD1_Y3143_G3139V] 1.44
KGSLPYNLILD [PKD1L2_Y406] 1.01
KGSLPYSLILD [PKD1L2_Y406_N407S] 1.37
QDLFLYQTHSE [PKHD1_Y255] 0.828
QDLLLYQTHSE [PKHD1_Y255_F253L] 0.861
LGGAMYYLEAE [PKHD1_Y452] 1.32
LGGAMYYLEAD [PKHD1_Y452_E457D] 1.33
LGGAMYFLEAE [PKHD1_Y452_YF] 1.38
DFTSRYLNASD [PKHD1_Y828] 1.09
DFTSRYLSASD [PKHD1_Y828_N830S] 0.735
VGGRIYTDDGL [PKLR_Y218_I219T] 0.724
RPGSGYTNIMR [PKLR_Y564] 0.52
GPGSGYTNIMR [PKLR_Y564_R559G] 0.908
RRFSSYSQMEN [PKP1_Y120] 0.256
RHFSSYSQMEN [PKP1_Y120_R116H] 0.91
SEPDLYCDPRG [PKP1_Y160] 0.609
YTHSDYQYSQR [PKP2_Y166] 0.593

The binders below were run against SHP2 N-SH2 domain T42A in the same assay as above. Conditions: peptide library: pTyr-Var.

Enrichment score, inactive:
VGIMLYGVDSR [PKD1_Y3143] 0.917
VVIMLYGVDSR [PKD1_Y3143_G3139V] 1.35
KGSLPYNLILD [PKD1L2_Y406] 0.85
KGSLPYSLILD [PKD1L2_Y406_N407S] 1.92
QDLFLYQTHSE [PKHD1_Y255] 0.661
QDLLLYQTHSE [PKHD1_Y255_F253L] 0.922
LGGAMYYLEAE [PKHD1_Y452] 1.33
LGGAMYYLEAD [PKHD1_Y452_E457D] 1.19
LGGAMYFLEAE [PKHD1_Y452_YF] 1.54
DFTSRYLNASD [PKHD1_Y828] 0.833
DFTSRYLSASD [PKHD1_Y828_N830S] 0.574
VGGRIYTDDGL [PKLR_Y218_I219T] 0.746
RPGSGYTNIMR [PKLR_Y564] 0.556
GPGSGYTNIMR [PKLR_Y564_R559G] 1.28
RRFSSYSQMEN [PKP1_Y120] 0.247
RHFSSYSQMEN [PKP1_Y120_R116H] 1.14
SEPDLYCDPRG [PKP1_Y160] 0.599
YTHSDYQYSQR [PKP2_Y166] 0.532

Each binder was assayed against SHP2 N-SH2 domain T52S in the same assay as above. Conditions: peptide library: pTyr-Var.

Enrichment score, inactive:
VGIMLYGVDSR [PKD1_Y3143] 1.02
VVIMLYGVDSR [PKD1_Y3143_G3139V] 1.5
KGSLPYNLILD [PKD1L2_Y406] 0.999
KGSLPYSLILD [PKD1L2_Y406_N407S] 1.32
QDLFLYQTHSE [PKHD1_Y255] 0.946
QDLLLYQTHSE [PKHD1_Y255_F253L] 0.979
LGGAMYYLEAE [PKHD1_Y452] 1.43
LGGAMYYLEAD [PKHD1_Y452_E457D] 1.13
LGGAMYFLEAE [PKHD1_Y452_YF] 1.44
DFTSRYLNASD [PKHD1_Y828] 0.897
DFTSRYLSASD [PKHD1_Y828_N830S] 0.809
VGGRIYTDDGL [PKLR_Y218_I219T] 0.684
RPGSGYTNIMR [PKLR_Y564] 0.694
GPGSGYTNIMR [PKLR_Y564_R559G] 0.907
RRFSSYSQMEN [PKP1_Y120] 0.352
RHFSSYSQMEN [PKP1_Y120_R116H] 0.851
SEPDLYCDPRG [PKP1_Y160] 0.617
YTHSDYQYSQR [PKP2_Y166] 0.534

These binders were tested against SHP2 N-SH2 domain wild-type in the same assay as above. Conditions: peptide library: pTyr-Var.

Enrichment score, inactive:
VGIMLYGVDSR [PKD1_Y3143] 1.35
VVIMLYGVDSR [PKD1_Y3143_G3139V] 1.86
KGSLPYNLILD [PKD1L2_Y406] 0.995
KGSLPYSLILD [PKD1L2_Y406_N407S] 1.52
QDLFLYQTHSE [PKHD1_Y255] 0.888
QDLLLYQTHSE [PKHD1_Y255_F253L] 1.27
LGGAMYYLEAE [PKHD1_Y452] 1.1
LGGAMYYLEAD [PKHD1_Y452_E457D] 1.58
LGGAMYFLEAE [PKHD1_Y452_YF] 1.38
DFTSRYLNASD [PKHD1_Y828] 1.01
DFTSRYLSASD [PKHD1_Y828_N830S] 0.754
VGGRIYTDDGL [PKLR_Y218_I219T] 0.761
RPGSGYTNIMR [PKLR_Y564] 0.597
GPGSGYTNIMR [PKLR_Y564_R559G] 0.918
RRFSSYSQMEN [PKP1_Y120] 0.345
RHFSSYSQMEN [PKP1_Y120_R116H] 1.11
SEPDLYCDPRG [PKP1_Y160] 0.829
YTHSDYQYSQR [PKP2_Y166] 0.542

From the supplement of paper PMC10369915
